Test results as given in PubChem BioAssay AID652104 (National Center for Advancing Translational Sciences (NCATS), 2013).
The campaign covered roughly 410,000 compounds. About 7,200 (1.8%) were called active. Inconclusive results, whose numbers are uncertain, are shown with a selection of clear calls. Calls follow the shape of the dose curve; as a rule, active = well fitted activation curve with a large enough effect; inconclusive = small, poorly fitted or top-dose-only effect, or another doubt; inactive = no such curve, though single readings can be large or run the other way. Potencies of inconclusive entries are left out as doubtful fits.

Assay: qHTS of TDP-43 Inhibitors; also: nearly all actives have a fitted effect of over 50% in size; as to growth rescue (activation): % of control where 0% means no effect
Conditions: TDP-43 expressing yeast growth rescue, BacTiter-Glo, 24 h; growth rescue (activation): at 46.1 µM (top of the series) unless noted
Summary of the method: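 Yeast cells expressing TDP-43 under galactose induction are exposed to compounds for 24 hr at 30 deg C. BacTiter-Glo luminescence measures growth, so protective compounds score as activators.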
Potency is read from the fitted curve at half-maximal effect; tags tell the direction and shape of the fitted curve.

Which Potency does the source give for `N#Cc1ccccc1OCC(=O)Nc1cc(S(=O)(=O)N2CCCCC2)ccc1N1CCOCC1` here?
The Potency was inconclusive [activator, partial curve].

Which Potency does the source give for `CCCn1cnc2c(SCCc3ccccc3)nc(N)nc21` here?
The Potency was inconclusive [activator, single point].

Which growth rescue (activation) does the source give for `O=[N+]([O-])c1cc(Cl)c2cccnc2c1O` here?
The growth rescue (activation) was inconclusive: -82.7% [activator].

For `CC1(C)N([O-])C(c2cccs2)=C[N+]1=O`, which Potency is on record?
Its Potency is “inactive”.

For `O=C1Cc2ccccc2N1c1c(Cl)cccc1Cl`, which Potency is on record?
Its Potency is inconclusive [activator, single point].

For `Cc1cccc(-c2nc3ccccc3n2Cc2ccccc2)c1`, which Potency is on record?
The Potency was active: 11.2 µM.

Which Potency does the source give for `O=C(Nc1ccccc1N1CCCC1)c1cccc(F)c1` here?
The Potency was “inactive”.

Which Potency does the source give for `COc1cc2sc(C)nc2c2ccccc12` here?
Its Potency is inconclusive [activator, partial curve].

Which Potency does the source give for `COc1cccc(N2CCN(C(=O)C3Cc4ccccc4N3C(C)=O)CC2)c1` (stereo unspecified) here?
Its Potency is inconclusive [activator, full curve, poor fit].

For `CC(C)c1ccc(NC(=O)Nc2nc(C(N)CCc3ccccc3)cs2)cc1` (stereo unspecified), which Potency is on record?
The Potency was “inactive”.

For `O=C(C1CCC1)N1CCCc2cc(S(=O)(=O)N3CCN(c4ccccc4)CC3)ccc21`, which Potency is on record?
Its Potency is inconclusive [activator, single point].

With `CCc1nnc(NC(=O)c2ccc(S(=O)(=O)N(CC(C)C)CC(C)C)cc2)o1` as the compound, how does the Potency read?
The Potency was inconclusive [activator, partial curve].

Which Potency does the source give for `CCN(CC(=O)Nc1ccc([N+](=O)[O-])cc1OC)c1ccccc1` here?
The Potency was inconclusive [activator, single point].

With `CCCC(=O)Nc1cc(C(=O)NCc2ccccc2)ccc1S(=O)(=O)c1ccc(Cl)cc1` as the compound, how does the Potency read?
Its Potency is inconclusive [activator, partial curve, poor fit].

Which Potency does the source give for `CCN(CC)c1ccc2ccc(=O)oc2c1` here?
The Potency was inconclusive [activator, single point].

For `NS(=O)(=O)c1ccc(CCNC(=O)COC(=O)/C=C/c2cc(Br)ccc2F)cc1`, which Potency is on record?
Its Potency is inconclusive [activator, partial curve].

With `O=S(=O)(NCc1ccc(F)cc1)c1ccc(Br)cc1Br` as the compound, how does the Potency read?
The Potency was active: 22.4 µM.

For `O=C(CCc1ccccc1)Nc1cc2c(cc1Cl)OCCO2`, which Potency is on record?
Its Potency is inconclusive [activator, partial curve].

Which Potency does the source give for `COc1ccccc1C(=O)COC(=O)c1cccs1` here?
The Potency was inconclusive [activator, single point].

For `COc1ccc2c(Sc3ccc(C)cc3)c(C(=O)NCc3ccc(F)cc3)[nH]c2c1`, which Potency is on record?
Its Potency is “inactive”.

Which Potency does the source give for `COc1ccccc1C1=NC(c2ccc(C)cc2)N=C1C` (stereo unspecified) here?
The Potency was inconclusive [activator, partial curve].

For `CCCCOc1ccc(-c2nnn(C(C)C(=O)OCC)n2)cc1` (stereo unspecified), which Potency is on record?
Its Potency is inconclusive [activator, single point].

For `COc1ccc(Nc2ccccc2NC(=O)c2ccccc2Br)cc1`, which Potency is on record?
The Potency was active: 15.8 µM.

With `Cc1nc(SCC(=O)Nc2nccs2)c(C#N)c(C)c1C` as the compound, how does the Potency read?
Its Potency is “inactive”.

With `Cc1cc(-c2csc(Nc3ccccn3)n2)ccc1F` as the compound, how does the Potency read?
The Potency was active: 3.98 µM.

With `CC(=O)N1N=C(c2ccccc2)CC1c1ccc2c(c1)OCO2` (stereo unspecified) as the compound, how does the Potency read?
Its Potency is inconclusive [activator, partial curve].

Which Potency does the source give for `Cc1cc(Br)ccc1NC(=O)Cn1cnc2sc(C)c(S(=O)(=O)N3CCN(C)CC3)c2c1=O` here?
The Potency was “inactive”.

With `O=C(OCC(=O)N1CCN(C(=O)c2ccco2)CC1)c1cc(-c2ccccc2)nc2ccccc12` as the compound, how does the Potency read?
The Potency was inconclusive [activator, single point].

Which Potency does the source give for `CCn1c(=O)n(-c2ccc(F)cc2)c(=O)c2sc3ccccc3c21` here?
Its Potency is “inactive”.

For `O=C(Nc1ccc(Cl)cc1)Nc1ccccn1`, which Potency is on record?
Its Potency is inconclusive [activator, partial curve].

Which Potency does the source give for `O=C1C(CCc2ccccc2)ON=C(c2cnccn2)N1Cc1ccc(F)cc1` (stereo unspecified) here?
Its Potency is inconclusive [activator, single point].

With `Nc1nonc1-n1nnc(C(=O)N/N=C/c2ccc(O)cc2)c1COc1ccc(F)cc1` as the compound, how does the Potency read?
The Potency was “inactive”.

With `Cc1cc(NC(=O)CCC(=O)N(c2cccc(F)c2)C(C(=O)NC2CCCC2)c2ccc(C)o2)no1` (stereo unspecified) as the compound, how does the Potency read?
The Potency was inconclusive [activator, single point].

With `COc1ccccc1CNC(=O)CCC(=O)n1ncc2cc(C)ccc21` as the compound, how does the Potency read?
The Potency was “inactive”.

Which Potency does the source give for `COc1ccc(CCNC(=O)C2CC(c3ccc(C(F)(F)F)cc3)=NO2)cc1` (stereo unspecified) here?
Its Potency is inconclusive [activator, partial curve].

With `Cc1ccccc1C(=O)NC(CC(C)C)C(=O)OCc1cc(=O)n2cc(Br)ccc2n1` (stereo unspecified) as the compound, how does the Potency read?
Its Potency is inconclusive [activator, partial curve].

For `CCOC(=O)C1=CNS(=O)(=O)NC1c1ccc(C[C@H](NC(=O)CNC(=O)CCc2ccccc2)C(N)=O)cc1` (stereo partly specified), which Potency is on record?
The Potency was “inactive”.

With `COc1ccc(C(=O)NCC(=O)N2CCN(c3ncccn3)CC2)cc1OC` as the compound, how does the Potency read?
Its Potency is “inactive”.

For `COc1ccccc1N1CCN(C(=O)c2ccc(-c3nc4ccccc4s3)o2)CC1`, which Potency is on record?
The Potency was active: 22.4 µM.

Which Potency does the source give for `COc1ccc(CNC(=O)Cc2c(C)c3c(cc(C)c4c(C)coc43)oc2=O)cc1OC` here?
Its Potency is “inactive”.

For `CNC(=S)N/N=C/c1ccc(C(C)C)cc1`, which Potency is on record?
The Potency was inconclusive [activator, partial curve].

Which Potency does the source give for `CCNC(=O)Cc1c(OC)ccc2cc(Br)ccc12` here?
The Potency was inconclusive [activator, partial curve].

Which Potency does the source give for `Cc1noc(C)c1S(=O)(=O)N(C)C[C@H]1Oc2ccc(NC(=O)NC3CCCCC3)cc2C(=O)N([C@H](C)CO)C[C@@H]1C` here?
Its Potency is inconclusive [activator, single point].

With `COc1ccc(NC(=O)CSC2=Nc3ccccc3C3=NC(CCC(=O)NCc4cccs4)C(=O)N23)cc1` (stereo unspecified) as the compound, how does the Potency read?
Its Potency is inconclusive [activator, partial curve, poor fit].

Which Potency does the source give for `COc1ccccc1N1CCN(C(=O)c2cc(-c3ccc(C)cc3)on2)CC1` here?
The Potency was inconclusive [activator, single point].

With `CCOC(=O)c1cnc(-n2nc(C)cc2C)nc1NNc1ncc(-c2ccccc2)cn1` as the compound, how does the Potency read?
Its Potency is inconclusive [activator, single point].

For `Cc1nn(-c2ccc(F)cc2)c(-n2cccc2)c1C(=O)N1CCN(c2ccccc2)CC1`, which Potency is on record?
The Potency was inconclusive [activator, single point].

For `COc1ccc(C(C#N)=C2C=CC(=NO)c3ccccc32)cc1`, which Potency is on record?
Its Potency is inconclusive [activator, partial curve].

For `Cc1cc2nn(-c3ccccc3)nc2cc1NC(=O)COc1ccc(Cl)cc1`, which Potency is on record?
The Potency was “inactive”.

Which Potency does the source give for `COc1ccc2c(=O)c3ccccc3oc2c1` here?
Its Potency is inconclusive [activator, partial curve].

For `Cc1cc(Sc2ncnc(N)c2[N+](=O)[O-])ncn1`, which Potency is on record?
The Potency was active: 22.4 µM.

With `COc1ccc2[nH]c3c(N4CCc5ccccc5C4)ncnc3c2c1` as the compound, how does the Potency read?
The Potency was inconclusive [activator, partial curve].

For `CC1=C(C(=O)NCc2cccc(Br)c2)C2(CCCCC2)OC1=O`, which Potency is on record?
The Potency was active: 17.8 µM.

For `CCOC(=O)c1nc(S(C)(=O)=O)ncc1Cl`, which Potency is on record?
The Potency was inconclusive [activator, partial curve].

For `COc1cc(/C=N/NC(=O)COc2ccc(C)cc2)ccc1OC(=O)c1cccs1`, which Potency is on record?
Its Potency is inconclusive [activator, partial curve].

With `O=c1cc(-c2ccccc2)oc2cccc(O)c12` as the compound, how does the Potency read?
The Potency was inconclusive [activator, partial curve, poor fit].

For `O=C(CSc1ccc(-c2ccco2)nn1)Nc1ccc(F)cc1F`, which Potency is on record?
The Potency was inconclusive [activator, partial curve].

Which Potency does the source give for `Cc1ccc(N2CCN(C(=O)c3cnc(N4CCCCC4)c4ccccc34)CC2)c(C)c1` here?
The Potency was “inactive”.

Which Potency does the source give for `COc1ccc(CNC(=O)CCCN2C(=O)COc3ccc(C)cc32)cc1` here?
The Potency was inconclusive [activator, single point].

With `CCC(=O)N1c2ccccc2CC1C(=O)NCCc1ccccc1` (stereo unspecified) as the compound, how does the Potency read?
The Potency was inconclusive [activator, partial curve].

Which Potency does the source give for `COc1ccc(C)cc1NC1=C(Cl)C(=O)N(C2CCCCC2)C1=O` here?
Its Potency is “inactive”.

With `Cc1ccc2c(c1)c(Sc1ccccc1)c(CC(=O)O)n2C` as the compound, how does the Potency read?
Its Potency is inconclusive [activator, partial curve].

Which Potency does the source give for `Cc1ccc(NC(=O)O/N=C/c2ccc(N(C)C)cc2)cc1` here?
The Potency was inconclusive [activator, single point].

For `COc1ccc(/C=N/NC(=O)c2ccncc2)cc1CSc1nc2ccccc2s1`, which Potency is on record?
The Potency was inconclusive [activator, single point].

Which Potency does the source give for `CC(=O)NC1CC2CCCC(C1)N2S(=O)(=O)c1cccc(F)c1` (stereo unspecified) here?
Its Potency is “inactive”.

With `COC(=O)c1cnc(N2CCCN(S(=O)(=O)c3ccccc3)CC2)nc1C(F)(F)F` as the compound, how does the Potency read?
The Potency was inconclusive [activator, single point].

With `Cc1cc(-c2ccc(S(=O)(=O)NCc3ccc(Cl)cc3)cc2)on1` as the compound, how does the Potency read?
Its Potency is inconclusive [activator, partial curve].

For `Cc1ccc(CNC(=O)Cc2cn(C)c3ccccc23)cc1`, which Potency is on record?
The Potency was inconclusive [activator, single point].

With `COc1cc([C@@H]2OC[C@@H]3[C@H]2CO[C@@H]3c2ccc3c(c2)OCO3)ccc1O` as the compound, how does the Potency read?
The Potency was inconclusive [activator, partial curve].

Which Potency does the source give for `CC1C(=O)C(C)(C)C(=O)OC1c1ccccc1` (stereo unspecified) here?
The Potency was “inactive”.

With `Cc1nn(C(=O)c2ccc(Cl)cc2)c(C)c1S(=O)(=O)N1CCCCCC1` as the compound, how does the Potency read?
The Potency was inconclusive [activator, partial curve].
